Like-named read-outs stand apart in the source and are kept apart here. Results are given in words; binding and its absence hold for the method and conditions named. For some of these results: In cells and extracts the contact can be indirect. For some of these results: Sequences can lack the tags named with a protein. Some results given as binding are weak or reduced against the parent protein; the word gives no strength.

Chains of the proteins cited; added tags and fusions are not shown.
UniProt O49686: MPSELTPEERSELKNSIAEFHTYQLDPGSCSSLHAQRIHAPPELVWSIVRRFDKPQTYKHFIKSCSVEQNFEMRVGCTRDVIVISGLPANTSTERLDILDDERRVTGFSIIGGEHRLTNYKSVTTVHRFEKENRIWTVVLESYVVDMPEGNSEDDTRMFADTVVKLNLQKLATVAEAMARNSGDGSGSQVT
UniProt P49597: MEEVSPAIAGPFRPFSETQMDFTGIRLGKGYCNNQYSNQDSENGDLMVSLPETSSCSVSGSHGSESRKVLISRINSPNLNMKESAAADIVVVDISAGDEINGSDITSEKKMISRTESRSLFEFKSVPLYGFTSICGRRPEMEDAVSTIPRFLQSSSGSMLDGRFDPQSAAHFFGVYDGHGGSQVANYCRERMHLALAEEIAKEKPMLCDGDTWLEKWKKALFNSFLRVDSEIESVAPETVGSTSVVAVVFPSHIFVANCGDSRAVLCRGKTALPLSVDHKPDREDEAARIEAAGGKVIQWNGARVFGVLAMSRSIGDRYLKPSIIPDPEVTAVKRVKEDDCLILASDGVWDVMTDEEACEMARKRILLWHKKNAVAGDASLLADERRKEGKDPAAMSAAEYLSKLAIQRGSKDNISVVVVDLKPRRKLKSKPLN
UniProt O04719: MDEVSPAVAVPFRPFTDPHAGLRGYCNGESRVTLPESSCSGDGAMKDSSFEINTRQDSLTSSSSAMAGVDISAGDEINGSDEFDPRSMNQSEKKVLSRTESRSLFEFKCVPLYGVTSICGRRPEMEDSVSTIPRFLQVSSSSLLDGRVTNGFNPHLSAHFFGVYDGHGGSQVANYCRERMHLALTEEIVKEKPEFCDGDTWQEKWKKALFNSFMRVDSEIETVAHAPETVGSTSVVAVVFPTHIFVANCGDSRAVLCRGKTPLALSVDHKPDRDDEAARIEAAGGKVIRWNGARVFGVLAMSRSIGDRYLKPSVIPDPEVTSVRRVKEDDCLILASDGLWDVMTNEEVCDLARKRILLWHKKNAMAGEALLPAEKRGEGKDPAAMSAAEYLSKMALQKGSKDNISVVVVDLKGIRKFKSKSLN

One experiment concerns the target T1, HA-DOG1 (Arabidopsis) (UniProt A0SVK0).
T1 sequence: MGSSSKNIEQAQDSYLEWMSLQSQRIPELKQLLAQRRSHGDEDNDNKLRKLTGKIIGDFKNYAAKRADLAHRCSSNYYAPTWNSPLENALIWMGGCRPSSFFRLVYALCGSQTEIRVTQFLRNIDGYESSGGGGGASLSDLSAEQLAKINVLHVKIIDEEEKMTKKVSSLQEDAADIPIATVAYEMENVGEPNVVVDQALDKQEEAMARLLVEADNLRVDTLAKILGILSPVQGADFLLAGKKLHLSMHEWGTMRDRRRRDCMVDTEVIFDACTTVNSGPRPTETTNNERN
In words: co-IP; co-expression in N. benthamiana leaves; extraction buffer 50 mM Na-phosphate pH 7.4, 150 mM NaCl, 0.1% NP-40, 1 mM DTT; anti-HA matrix 3 h at 4 °C; blots with anti-GFP and anti-HA; leaves with or without 100 μM ABA or 50 μM hemin for 24 h.

The target in experiment [1] is T2, GAL4BD-DOG1 (Arabidopsis) (UniProt A0SVK0).
T2 sequence: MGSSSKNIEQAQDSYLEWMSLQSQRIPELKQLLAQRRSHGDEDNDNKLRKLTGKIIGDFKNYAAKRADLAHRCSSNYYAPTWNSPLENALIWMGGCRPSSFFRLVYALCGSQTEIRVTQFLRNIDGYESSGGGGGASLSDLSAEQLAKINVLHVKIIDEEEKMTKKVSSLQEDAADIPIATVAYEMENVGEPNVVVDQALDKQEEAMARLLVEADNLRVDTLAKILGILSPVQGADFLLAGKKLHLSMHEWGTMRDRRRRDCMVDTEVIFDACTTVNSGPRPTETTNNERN
The experiment in a line: two-hybrid; Matchmaker Gold, Y2H gold strain; fusions from pASGW-attR and pACTGW-attR (GAL4BD-DOG1 and GAL4AD-PP2Cs in Fig. 4a); growth on QDO/A plates, 7 days.

In experiment [2] the target is T3, DOG1-Like 3 (DOGL3), yeast two-hybrid fusion (Arabidopsis) (UniProt Q58FV0).
T3 sequence: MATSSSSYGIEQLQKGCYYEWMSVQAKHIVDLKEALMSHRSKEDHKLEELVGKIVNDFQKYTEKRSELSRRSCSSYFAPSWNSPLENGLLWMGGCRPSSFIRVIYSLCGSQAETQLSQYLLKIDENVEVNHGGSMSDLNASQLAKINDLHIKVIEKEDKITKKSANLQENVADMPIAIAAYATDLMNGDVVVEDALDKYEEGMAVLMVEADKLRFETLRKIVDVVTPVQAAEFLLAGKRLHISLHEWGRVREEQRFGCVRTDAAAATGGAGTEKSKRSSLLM
The experiment is described as above.

For experiment [3], the target named is T2, GAL4BD-DOG1 (Arabidopsis). The description is as above. This is another data set of the same source.
Experiment [4] deals with T3, DOG1-Like 3 (DOGL3), yeast two-hybrid fusion (Arabidopsis). The experiment is described as above. This is another data set of the same source.
The target of experiment [5] is T4, GAL4AD-AHG1 (Arabidopsis) (UniProt Q9FLI3).
T4 sequence: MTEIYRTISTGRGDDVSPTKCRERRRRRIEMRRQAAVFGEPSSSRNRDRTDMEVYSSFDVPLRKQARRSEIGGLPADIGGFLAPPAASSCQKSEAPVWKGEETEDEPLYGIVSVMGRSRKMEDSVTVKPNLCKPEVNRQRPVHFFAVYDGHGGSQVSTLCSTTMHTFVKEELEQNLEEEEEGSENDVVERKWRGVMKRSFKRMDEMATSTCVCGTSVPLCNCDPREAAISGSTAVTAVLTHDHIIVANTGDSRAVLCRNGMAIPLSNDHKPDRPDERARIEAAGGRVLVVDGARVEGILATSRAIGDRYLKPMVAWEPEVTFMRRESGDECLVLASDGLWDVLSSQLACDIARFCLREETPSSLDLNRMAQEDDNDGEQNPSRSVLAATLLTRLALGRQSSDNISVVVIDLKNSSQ
The experiment is described as above.

The target of experiment [6] is GAL4BD-PYR1 (Arabidopsis) (UniProt O49686). In words: two-hybrid; Matchmaker Gold, Y2H gold strain; GAL4BD-PYR1 and GAL4AD-PP2Cs; tenfold serial dilutions on QDO/A and QDO/A/ABA (10 μM ABA) plates, 7 days.

As to “YFP-ABI1 (from UniProt P49597 1-434) (enzyme)”, in the experiment with HA-DOG1 (Arabidopsis), the binding result is on record as “no binding”.
Consider “GAL4AD-ABI2 (from UniProt O04719 1-423) (enzyme)”, for which the binding result in experiment [1] and in experiment [2] was “no binding” in each case.
As to “GAL4AD-ABI1 (from UniProt P49597 1-434) (enzyme)”, the binding entry in experiment [1] and in experiment [2] was “no binding” each time.

B1: GAL4AD-HAB2 (enzyme, UniProt Q9LNP9 1-511)
chain: MEEISPAVALTLGLANTMCDSGISSTFDISELENVTDAADMLCNQKRQRYSNGVVDCIMGSVSEEKTLSEVRSLSSDFSVTVQESEEDEPLVSDATIISEGLIVVDARSEISLPDTVETDNGRVLATAIILNETTIEQVPTAEVLIASLNHDVNMEVATSEVVIRLPEENPNVARGSRSVYELECIPLWGTISICGGRSEMEDAVRALPHFLKIPIKMLMGDHEGMSPSLPYLTSHFFGVYDGHGGAQVADYCHDRIHSALAEEIERIKEELCRRNTGEGRQVQWEKVFVDCYLKVDDEVKGKINRPVVGSSDRMVLEAVSPETVGSTAVVALVCSSHIIVSNCGDSRAVLLRGKDSMPLSVDHKPDREDEYARIEKAGGKVIQWQGARVSGVLAMSRSIGDQYLEPFVIPDPEVTFMPRAREDECLILASDGLWDVMSNQEACDFARRRILAWHKKNGALPLAERGVGEDQACQAAAEYLSKLAIQMGSKDNISIIVIDLKAQRKFKTRS
Take B1: the binding result in experiment [3] and in experiment [4] was “no binding” in each case.

B2: ABI FIVE BINDING PROTEIN 2 (AFP2), yeast two-hybrid fusion (protein, UniProt Q9LMX5 1-348)
chain: MGEASRQQRAWNREMTVTTNLSLDIDKYPRDLLRGFMSENGGGRVFHGGETNCDDESTIELNLGLSLGGRFGVDKTPRKLKRSSSVLDTVPFNDSTVAEPENYTVGLERTTSLPAEMEEEWRKRKEMQSLRRMEAKRRRCEKQSFRVGNSDDQTVSFENERWVTASKSGFLQRHLVSSNRQVCGVDSDGGGATGGGSSSSLSELDNKNQQGSSNSCNDERSPKIVAGCSSNSGSQGTERPSVTRANKVNENENEKRVRSEDSVDRKGKGMATSTGLVDMPCVFTKGDGPNGRRVDGILYKYGKGEEVRIMCICHGSFLTPAEFVKHGGGGDVDRPLRHIVVNTSSSTF
For B2, in experiment [5], the binding entry is on record as “binds”.

B3: GAL4AD-AHG1 (enzyme, UniProt Q9FLI3 1-416)
chain: MTEIYRTISTGRGDDVSPTKCRERRRRRIEMRRQAAVFGEPSSSRNRDRTDMEVYSSFDVPLRKQARRSEIGGLPADIGGFLAPPAASSCQKSEAPVWKGEETEDEPLYGIVSVMGRSRKMEDSVTVKPNLCKPEVNRQRPVHFFAVYDGHGGSQVSTLCSTTMHTFVKEELEQNLEEEEEGSENDVVERKWRGVMKRSFKRMDEMATSTCVCGTSVPLCNCDPREAAISGSTAVTAVLTHDHIIVANTGDSRAVLCRNGMAIPLSNDHKPDRPDERARIEAAGGRVLVVDGARVEGILATSRAIGDRYLKPMVAWEPEVTFMRRESGDECLVLASDGLWDVLSSQLACDIARFCLREETPSSLDLNRMAQEDDNDGEQNPSRSVLAATLLTRLALGRQSSDNISVVVIDLKNSSQ
With B3, the binding entry in experiment [6] is recorded as “no binding”; in experiment [3], “binds”; in experiment [4], “binds”.

B4: GAL4AD-HAI2/AIP1 (enzyme, UniProt Q9LNW3 1-442)
chain: MADICYEDETSACESRPLWSSRKWRIGVQRFRMSPSEMNPTASTTEEEDKSEGIYNKRNKQEEYDFMNCASSSPSQSSPEEESVSLEDSDVSISDGNSSVNDVAVIPSKKTVKETDLRPRYGVASVCGRRRDMEDAVALHPSFVRKQTEFSRTRWHYFGVYDGHGCSHVAARCKERLHELVQEEALSDKKEEWKKMMERSFTRMDKEVVRWGETVMSANCRCELQTPDCDAVGSTAVVSVITPEKIIVANCGDSRAVLCRNGKAVPLSTDHKPDRPDELDRIQEAGGRVIYWDGARVLGVLAMSRAIGDNYLKPYVTSEPEVTVTDRTEEDEFLILATDGLWDVVTNEAACTMVRMCLNRKSGRGRRRGETQTPGRRSEEEGKEEEEKVVGSRKNGKRGEITDKACTEASVLLTKLALAKHSSDNVSVVVIDLRRRRKRHVA
Take B4: the binding entry in experiment [6] is “no binding”; in experiment [3] it was “binds”.

B5: GAL4AD-HAI1 (enzyme, UniProt Q9FIF5 1-413)
chain: MAEICYENETMMIETTATVVKKATTTTRRRERSSSQAARRRRMEIRRFKFVSGEQEPVFVDGDLQRRRRRESTVAASTSTVFYETAKEVVVLCESLSSTVVALPDPEAYPKYGVASVCGRRREMEDAVAVHPFFSRHQTEYSSTGFHYCGVYDGHGCSHVAMKCRERLHELVREEFEADADWEKSMARSFTRMDMEVVALNADGAAKCRCELQRPDCDAVGSTAVVSVLTPEKIIVANCGDSRAVLCRNGKAIALSSDHKPDRPDELDRIQAAGGRVIYWDGPRVLGVLAMSRAIGDNYLKPYVISRPEVTVTDRANGDDFLILASDGLWDVVSNETACSVVRMCLRGKVNGQVSSSPEREMTGVGAGNVVVGGGDLPDKACEEASLLLTRLALARQSSDNVSVVVVDLRRDT
Take B5: the figures for the binding result in experiment [6] and in experiment [3] were “no binding” and “binds”, respectively.

B6: TOPLESS (TPL), yeast two-hybrid fusion (protein, UniProt Q94AI7 1-1131)
chain: MSSLSRELVFLILQFLDEEKFKETVHKLEQESGFFFNMKYFEDEVHNGNWDEVEKYLSGFTKVDDNRYSMKIFFEIRKQKYLEALDKHDRPKAVDILVKDLKVFSTFNEELFKEITQLLTLENFRENEQLSKYGDTKSARAIMLVELKKLIEANPLFRDKLQFPTLRNSRLRTLINQSLNWQHQLCKNPRPNPDIKTLFVDHSCGPPNGARAPSPVNNPLLGGIPKAGGFPPLGAHGPFQPTASPVPTPLAGWMSSPSSVPHPAVSAGAIALGGPSIPAALKHPRTPPTNASLDYPSADSEHVSKRTRPMGISDEVNLGVNMLPMSFSGQAHGHSPAFKAPDDLPKTVARTLSQGSSPMSMDFHPIKQTLLLVGTNVGDIGLWEVGSRERLVQKTFKVWDLSKCSMPLQAALVKEPVVSVNRVIWSPDGSLFGVAYSRHIVQLYSYHGGEDMRQHLEIDAHVGGVNDISFSTPNKQLCVITCGDDKTIKVWDAATGVKRHTFEGHEAPVYSVCPHYKENIQFIFSTALDGKIKAWLYDNMGSRVDYDAPGRWCTTMAYSADGTRLFSCGTSKDGESFIVEWNESEGAVKRTYQGFHKRSLGVVQFDTTKNRYLAAGDDFSIKFWDMDAVQLLTAIDGDGGLQASPRIRFNKEGSLLAVSGNENVIKIMANSDGLRLLHTFENISSESSKPAINSIAAAAAAAATSAGHADRSANVVSIQGMNGDSRNMVDVKPVITEESNDKSKIWKLTEVSEPSQCRSLRLPENLRVAKISRLIFTNSGNAILALASNAIHLLWKWQRNERNATGKATASLPPQQWQPASGILMTNDVAETNPEEAVPCFALSKNDSYVMSASGGKISLFNMMTFKTMATFMPPPPAATFLAFHPQDNNIIAIGMDDSTIQIYNVRVDEVKSKLKGHSKRITGLAFSNVLNVLVSSGADAQLCVWNTDGWEKQRSKVLPLPQGRPNSAPSDTRVQFHQDQAHFLVVHETQLAIYETTKLECMKQWAVRESLAPITHATFSCDSQLVYASFMDATVCVFSSANLRLRCRVNPSAYLPASLSNSNVHPLVIAAHPQEPNMFAVGLSDGGVHIFEPLESEGKWGVAPPAENGSASGAPTAPSVGASASDQPQR
Turning to B6, the binding entry in experiment [5] is listed as “binds”.

These data come from PMC5989226 (Nature Communications, 2018).
